The list shows a part of the results. The list includes weakly bound sequences.

This passage reports binding signal (RPM ratio (pull-down/input)) results from paper PMC12820563.

The experiment deals with T1, MBP-FoxP3dN (UniProt Q99JB6).
T1 sequence: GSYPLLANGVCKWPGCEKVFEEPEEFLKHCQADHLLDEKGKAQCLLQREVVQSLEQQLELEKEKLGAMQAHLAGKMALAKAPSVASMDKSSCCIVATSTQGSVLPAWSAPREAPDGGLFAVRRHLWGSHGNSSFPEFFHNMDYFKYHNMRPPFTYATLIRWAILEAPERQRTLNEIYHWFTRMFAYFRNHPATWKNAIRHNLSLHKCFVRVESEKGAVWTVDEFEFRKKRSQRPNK
As to the kind of experiment: PD-seq (MBP pull-down with sequencing). The conditions noted are these: 20 mM Tris-HCl pH 7.5, 100 mM NaCl, 1.5 mM MgCl2, 0.4 uM protein, 0.1 uM dsDNA library, 30 min, room temperature, amylose pull-down; high values mean tight binding; double strand, one strand shown.
Consider “GATGATTGTTCTCCCAGCTGATGAATTCGTGGCTTCGAGTAAACAAATTTTCCTAATCTTTCTGTTCAAGCGCCATCTAC”, for which the binding signal (RPM ratio (pull-down/input)) is 0.704. In the case of “GATGATTGTTCTCCCAGCTGATGAATTCTATAGTTCGAGTAAACAAATTTTCCTAATCTTTCTGTTCAAGCGCCATCTAC” it was 0.74. Consider “GATGATTGTTCTCCCAGCTGATGAATTCCTATCCTCGAGTAAACAAATTTTCCTAATCTTTCTGTTCAAGCGCCATCTAC”, for which the binding signal (RPM ratio (pull-down/input)) was found to be 0.271.

On to “GATGATTGTTCTCCCAGCTGATGAATTATGGTGTTCGAGTAAACAAATTTTCCTAATCTTTCTGTTCAAGCGCCATCTAC”, for which the binding signal (RPM ratio (pull-down/input)) was found to be 1.57.

For “GATGATTGTTCTCCCAGCTGATGAATTATCATCATCGAGTAAACAAATTTTCCTAATCTTTCTGTTCAAGCGCCATCTAC”, the binding signal (RPM ratio (pull-down/input)) turned out to be 0.654. The same measure for “GATGATTGTTCTCCCAGCTGATGAATTACGATCTTCGAGTAAACAAATTTTCCTAATCTTTCTGTTCAAGCGCCATCTAC”: 0.423.

In the case of “GATGATTGTTCTCCCAGCTGATGAATTGACTTGCTCGAGTAAACAAATTTTCCTAATCTTTCTGTTCAAGCGCCATCTAC”, the binding signal (RPM ratio (pull-down/input)) is 0.466. In the case of “GATGATTGTTCTCCCAGCTGATGAATTGGCGTGCTCGAGTAAACAAATTTTCCTAATCTTTCTGTTCAAGCGCCATCTAC” it was 1.07; in that of “GATGATTGTTCTCCCAGCTGATGAATTGTTATCATCGAGTAAACAAATTTTCCTAATCTTTCTGTTCAAGCGCCATCTAC”, 3.17. In the case of “GATGATTGTTCTCCCAGCTGATGAATTGTGCTTTTCGAGTAAACAAATTTTCCTAATCTTTCTGTTCAAGCGCCATCTAC” it was 4.22; in that of “GATGATTGTTCTCCCAGCTGATGAATTTTGTTGATCGAGTAAACAAATTTTCCTAATCTTTCTGTTCAAGCGCCATCTAC”, 7.34; in that of “GATGATTGTTCTCCCAGCTGATGAATTTAATCAATCGAGTAAACAAATTTTCCTAATCTTTCTGTTCAAGCGCCATCTAC”, 0.269.

“GATGATTGTTCTCCCAGCTGATGAATTAGCATCCTCGAGTAAACAAATTTTCCTAATCTTTCTGTTCAAGCGCCATCTAC”: the binding signal (RPM ratio (pull-down/input)) is 5.16.

For “GATGATTGTTCTCCCAGCTGATGAATTGATACGCTCGAGTAAACAAATTTTCCTAATCTTTCTGTTCAAGCGCCATCTAC”, the binding signal (RPM ratio (pull-down/input)) stood at 0.861.

For “GATGATTGTTCTCCCAGCTGATGAATTACAAGAGTCGAGTAAACAAATTTTCCTAATCTTTCTGTTCAAGCGCCATCTAC”, the binding signal (RPM ratio (pull-down/input)) was found to be 0.34. The same measure for “GATGATTGTTCTCCCAGCTGATGAATTCCGACCTTCGAGTAAACAAATTTTCCTAATCTTTCTGTTCAAGCGCCATCTAC”: 0.331; for “GATGATTGTTCTCCCAGCTGATGAATTTGGCACTTCGAGTAAACAAATTTTCCTAATCTTTCTGTTCAAGCGCCATCTAC”: 1.06. The same measure for “GATGATTGTTCTCCCAGCTGATGAATTGTCTCTTTCGAGTAAACAAATTTTCCTAATCTTTCTGTTCAAGCGCCATCTAC”: 0.475. The same measure for “GATGATTGTTCTCCCAGCTGATGAATTGAGTCAATCGAGTAAACAAATTTTCCTAATCTTTCTGTTCAAGCGCCATCTAC”: 0.387; for “GATGATTGTTCTCCCAGCTGATGAATTCCGCTCATCGAGTAAACAAATTTTCCTAATCTTTCTGTTCAAGCGCCATCTAC”: 0.571. Consider “GATGATTGTTCTCCCAGCTGATGAATTGTGAGTGTCGAGTAAACAAATTTTCCTAATCTTTCTGTTCAAGCGCCATCTAC”, for which the binding signal (RPM ratio (pull-down/input)) amounted to 2.88. In the case of “GATGATTGTTCTCCCAGCTGATGAATTCCGGTGATCGAGTAAACAAATTTTCCTAATCTTTCTGTTCAAGCGCCATCTAC” it was 0.44.

Consider “GATGATTGTTCTCCCAGCTGATGAATTAGAAACGTCGAGTAAACAAATTTTCCTAATCTTTCTGTTCAAGCGCCATCTAC”, for which the binding signal (RPM ratio (pull-down/input)) is 0.305. In the case of “GATGATTGTTCTCCCAGCTGATGAATTAATAGGATCGAGTAAACAAATTTTCCTAATCTTTCTGTTCAAGCGCCATCTAC” it was 0.284. On to “GATGATTGTTCTCCCAGCTGATGAATTAGAAGCATCGAGTAAACAAATTTTCCTAATCTTTCTGTTCAAGCGCCATCTAC”, for which the binding signal (RPM ratio (pull-down/input)) was determined as 0.694. With “GATGATTGTTCTCCCAGCTGATGAATTCCATAGATCGAGTAAACAAATTTTCCTAATCTTTCTGTTCAAGCGCCATCTAC”, the binding signal (RPM ratio (pull-down/input)) was found to be 0.239. The same measure for “GATGATTGTTCTCCCAGCTGATGAATTAGGGCTATCGAGTAAACAAATTTTCCTAATCTTTCTGTTCAAGCGCCATCTAC”: 0.609. The same measure for “GATGATTGTTCTCCCAGCTGATGAATTGGTGCTATCGAGTAAACAAATTTTCCTAATCTTTCTGTTCAAGCGCCATCTAC”: 0.891; for “GATGATTGTTCTCCCAGCTGATGAATTTTGAGTTTCGAGTAAACAAATTTTCCTAATCTTTCTGTTCAAGCGCCATCTAC”: 1.6. On to “GATGATTGTTCTCCCAGCTGATGAATTAACGTGATCGAGTAAACAAATTTTCCTAATCTTTCTGTTCAAGCGCCATCTAC”, for which the binding signal (RPM ratio (pull-down/input)) stood at 0.414.

“GATGATTGTTCTCCCAGCTGATGAATTAAGGTTGTCGAGTAAACAAATTTTCCTAATCTTTCTGTTCAAGCGCCATCTAC”: the binding signal (RPM ratio (pull-down/input)) was found to be 0.807.

As to “GATGATTGTTCTCCCAGCTGATGAATTTAAGTCTTCGAGTAAACAAATTTTCCTAATCTTTCTGTTCAAGCGCCATCTAC”, the binding signal (RPM ratio (pull-down/input)) stood at 0.457.

With “GATGATTGTTCTCCCAGCTGATGAATTTAAAGTATCGAGTAAACAAATTTTCCTAATCTTTCTGTTCAAGCGCCATCTAC”, the binding signal (RPM ratio (pull-down/input)) was found to be 0.501. The same measure for “GATGATTGTTCTCCCAGCTGATGAATTCTTTTCATCGAGTAAACAAATTTTCCTAATCTTTCTGTTCAAGCGCCATCTAC”: 0.33; for “GATGATTGTTCTCCCAGCTGATGAATTCATGGTGTCGAGTAAACAAATTTTCCTAATCTTTCTGTTCAAGCGCCATCTAC”: 1.3; for “GATGATTGTTCTCCCAGCTGATGAATTTAATTAGTCGAGTAAACAAATTTTCCTAATCTTTCTGTTCAAGCGCCATCTAC”: 2.64. In the case of “GATGATTGTTCTCCCAGCTGATGAATTGCAACGCTCGAGTAAACAAATTTTCCTAATCTTTCTGTTCAAGCGCCATCTAC” it was 1.21; in that of “GATGATTGTTCTCCCAGCTGATGAATTTCGGAATTCGAGTAAACAAATTTTCCTAATCTTTCTGTTCAAGCGCCATCTAC”, 0.657; in that of “GATGATTGTTCTCCCAGCTGATGAATTAAATCAGTCGAGTAAACAAATTTTCCTAATCTTTCTGTTCAAGCGCCATCTAC”, 0.256. In the case of “GATGATTGTTCTCCCAGCTGATGAATTATCTCTGTCGAGTAAACAAATTTTCCTAATCTTTCTGTTCAAGCGCCATCTAC” it was 0.24.
